The record followed here is ChEMBL document CHEMBL4888484, “Replenishing the malaria drug discovery pipeline: Screening and hit evaluation of the MMV Hit Generation Library 1 (HGL1) against asexual blood stage Plasmodium falciparum ,using a nano luciferase reporter read-out” (2022).

Out of some 150,000 compounds screened, about 540 (0.36%) showed an effect of 50% or more. The list shows a part of the results.

The test relates to Plasmodium falciparum. Kind of test: Primary screen in NF54 nanoGlo assay, in single point, at 2uM, 72h; a lower Z score goes with more inhibition. Format: functional, Erythrocyte. As to conditions: timepoint 72 hour.
What is called % Inhibition is the change of the read-out against control, counted positive when it falls. For `C[C@H](Nc1nnc(C(C)(C)C)s1)c1nnc2n1CCC2`, the “% Inhibition” value is given as -1% and the Z score is 0.07.
As for `CCc1cccc(OC2CN(Cc3ccc(OC)c(O)c3)C2)c1`, the “% Inhibition” value is -28% and the Z score is 2.61.
For `C[C@@H](C(=O)Nc1cc(C2CCCC2)[nH]n1)c1cccnc1`, the “% Inhibition” value is recorded as -7% and the Z score is listed as 1.38.
Consider `O=C1CC[C@H](C(=O)Nc2ccc3oc(-c4cc(F)ccc4Br)nc3c2)CN1`, for which the “% Inhibition” value is given as -4% and the Z score is 0.59.
With `CC(C)CN(CC(C)C)CN1C(=O)NC2(CCCCCCC2)C1=O`, the “% Inhibition” value is 0% and the Z score is reported as 0.05.
For `CS(=O)(=O)CCCS(=O)(=O)N1CC(OCCCOc2ccccc2)C1`, the “% Inhibition” value is 0% and the Z score is 0.05.
In the case of `O=C1COc2ccc(S(=O)(=O)N3CCC[C@H](C(=O)NCCCc4ccccc4)C3)cc2N1`, the “% Inhibition” value was -10% and the Z score was 1.8.
As to `Cn1cc(C(=O)Nc2cccc(-c3ccc(=O)[nH]n3)c2)cn1`, the “% Inhibition” value was -17% and the Z score came out at 2.55.
As to `CC1CN(C(=O)CN2CC(C)OCC2C)CCO1` (centres undefined), the “% Inhibition” value is -13% and the Z score is on record as 1.37.
With `CC(C)n1cnnc1CN1CCC[C@H](c2nnc[nH]2)C1`, the “% Inhibition” value is on record as -9% and the Z score amounted to 1.19.
On the same counts, the results for `CS(=O)(=O)c1ccc(S(=O)(=O)Nc2cccc(Nc3nc4ccccc4s3)c2)cc1` are -6% and 1.21.
As for `COc1ccc(-c2cc(OCC(N)=O)c3cc(NC(=O)c4ccccc4Cl)ccc3n2)cc1`, the “% Inhibition” value amounted to 12% and the Z score was -1.22.
Turning to `CC(=O)NC(C(=O)N1CC(C)OC(C)C1)C(C)C` (centres undefined), the “% Inhibition” value is 5% and the Z score is given as -0.64.
For `Clc1ccc(C2Nc3ccc(Cl)cc3C(c3ccccc3)O2)cc1` (centres undefined), the “% Inhibition” value is listed as -4% and the Z score stood at 0.69.
In the case of `CC(C)Cc1cc(C(=O)n2ncc(C#N)c2N)[nH]n1`, the “% Inhibition” value is listed as -7% and the Z score is 0.7.
For `CCC1(CC)CCCN(C(=O)c2ccnnc2)CC1`, the “% Inhibition” value was found to be 1% and the Z score was -0.17.
Take `CC[C@@H](CC#N)NC(=O)Nc1c(C)cc(Br)cc1OC`: the “% Inhibition” value is given as -2% and the Z score was 0.24.
On to `CCc1sc(C(=O)NCC(C)C)cc1C`, for which the “% Inhibition” value is reported as -19% and the Z score is given as 1.72.
Taken in the same sequence, the figures for `NC(=O)c1cc(F)ccc1Br` were -4% and 0.41.
For the compound `Cc1ccsc1C(=O)N1CC(n2cnnc2[C@@H]2CCCO2)C1`, the “% Inhibition” value is 28% and the Z score is -3.8.
Consider `Cc1cnn([C@H]2[C@@H]3OC[C@@H](O3)[C@@H](NC(=O)Nc3cccc(F)c3)[C@@H]2O)c1`, for which the “% Inhibition” value was -8% and the Z score turned out to be 1.26.
As to `C[C@H](NS(=O)(=O)c1ccc2c(c1)CCN2C(=O)N1CCCC1)C(=O)N1CCCCC1`, the “% Inhibition” value was 0% and the Z score was -0.04.
On the same counts, the results for `COCC(=O)Nc1cc(C(=O)N2CC[C@H](N(C)C)C2)c2c(c1)nc(C1CCC1)n2C` are -8% and 1.1.
On the same counts, the results for `Cc1cc(C(F)(F)F)cc(N2C[C@H]3CC[C@@H](C2)[C@@H]3N)n1` are -2% and 0.41.
On the same counts, the results for `Cc1ccccc1C1CC1C(=O)N(C)Cc1nnc2n1CCC2` (centres undefined) are -13% and 2.48.
With `CN(C)CCN(Cc1ccccc1)C(=O)Nc1c(-c2ccc(Cl)cc2)nn(-c2ccc(F)cc2)c1N`, the “% Inhibition” value is reported as -11% and the Z score is given as 1.17.
Turning to `CCOC(=O)[C@H](C)NC(=O)NC1CCC(F)(F)CC1`, the “% Inhibition” value is on record as -17% and the Z score came out at 2.19.
For `Cc1cnc(NCCOCCO)nc1C`, the “% Inhibition” value is listed as -7% and the Z score amounted to 0.79.
Consider `FC(F)(F)Oc1cccc(-n2ccnc2-c2cc3n(n2)CCCNC3)c1`, for which the “% Inhibition” value is -1% and the Z score was 0.2.
Turning to `CCN(Cc1cnn(CC)c1)S(=O)(=O)c1cc(-c2ccno2)oc1C`, the “% Inhibition” value is reported as -2% and the Z score is 0.45.
Regarding `Cc1cc(CN(C)[C@@H](C)CC(C)C)on1`, the “% Inhibition” value is listed as -5% and the Z score is listed as 0.58.
Taken in the same sequence, the figures for `Cn1c(=O)c(C(=O)N2CCCc3ccccc32)cc2cccnc21` were -8% and 1.04.
Take `NC(=O)CN1CCCCCc2ccccc21`: the “% Inhibition” value is on record as -6% and the Z score is recorded as 0.63.
On to `Cc1nc([C@H](NC(=O)C(C)(F)F)c2ccc(Cl)c(F)c2)no1`, for which the “% Inhibition” value is given as -1% and the Z score was 0.17.
For `CCOC(=O)N1CCN(C(=O)CCc2nc(O)c3ccccc3n2)CC1`, the “% Inhibition” value is -11% and the Z score stood at 1.18.
Taken in the same sequence, the figures for `COc1ccc(-n2cc(C(=O)O)c3c2[C@@H](c2ccccc2)CC(O)=N3)cc1` were -16% and 2.03.
For the compound `Cc1cc(S(=O)(=O)[C@H]2CS(=O)(=O)C[C@@H]2NCCc2ccc(Cl)cc2)ccc1F`, the “% Inhibition” value is given as 5% and the Z score is reported as -0.7.
For `Cc1cc(C)nc(O[C@H]2CCCN(C(=O)c3ccccc3Br)C2)n1`, the “% Inhibition” value turned out to be 10% and the Z score is -1.38.
Consider `CN1CCc2[nH]nc(C(=O)NC[C@@H](CO)Cc3ccsc3)c2C1`, for which the “% Inhibition” value came out at 1% and the Z score is -0.21.
Take `COc1cccc(C(=O)NCC2CCN(c3ccnc(C)c3)CC2)c1`: the “% Inhibition” value is listed as 22% and the Z score was -2.81.
In the case of `CC1CC(N(C)C(=O)Nc2cn[nH]c2)CCN1Cc1ccccc1` (centres undefined), the “% Inhibition” value is on record as -11% and the Z score stood at 1.72.
In the case of `COc1cc(Br)c(F)cc1S(=O)(=O)N[C@H]1CCN(C)C(=O)C1`, the “% Inhibition” value was -1% and the Z score is 0.09.
